Experimental findings from the antibiotic and cytotoxicity screens of Wong et al. (2023) are described below.

The subject of assay [1] is HSkMC (human skeletal muscle cells). As to the kind of experiment: cytotoxicity call (relative viability < 0.9). To be noted: 10 µM.
Assay [2] relates to HepG2. Kind of assay: cytotoxicity call (relative viability < 0.9). To be noted: 10 µM.
In assay [3] the test system is S. aureus RN4220. Kind of assay: growth inhibition call (relative growth <= 0.2). The conditions noted are these: 50 µM.

The other results are listed elsewhere or left out.

Turning to `O=C(c1cccnc1)N1C[C@H]2[C@@H](c3ccccc31)[C@H](CO)N2C(=O)CN1CCOCC1`, the cytotoxicity call in assay [1] and in assay [2] was “inactive” in each case. The growth inhibition call in assay [3] is “inactive”.
On to `C[C@@H]1CCCCO[C@@H](CN(C)Cc2ccc(C(=O)O)cc2)[C@H](C)CN([C@H](C)CO)C(=O)c2cc(NC(=O)Nc3ccc(F)cc3)ccc2O1`, for which the cytotoxicity call in assay [1] and in assay [2] was “inactive” in each case. For the same compound, the growth inhibition call in assay [3] was “inactive”.
On to `COc1ccc(S(=O)(=O)N(C)C[C@@H]2OCCCC[C@H](C)Oc3ccc(NS(=O)(=O)c4cn(C)cn4)cc3C(=O)N([C@H](C)CO)C[C@@H]2C)cc1`, for which the cytotoxicity call in assay [1] and in assay [2] was “inactive” each time. Further, the growth inhibition call in assay [3] was “inactive”.
For the compound `CCCCC(=O)c1ccc(O)cc1`, the cytotoxicity call in assay [1] and in assay [2] was “inactive” in each case. In addition, in assay [3], the growth inhibition call was “inactive”.
Turning to `O=S(=O)(NCC[C@@H]1CC[C@@H](NS(=O)(=O)c2cccc(Cl)c2)[C@@H](CO)O1)c1cccc(F)c1`, the cytotoxicity call in assay [1] and in assay [2] was “inactive” each time. For the same compound, the growth inhibition call in assay [3] was “inactive”.
For the compound `C[C@H]1CN([C@@H](C)CO)C(=O)c2cc(NC(=O)Nc3ccc4c(c3)OCO4)ccc2O[C@@H]1CN(C)Cc1ccc(C(F)(F)F)cc1`, the cytotoxicity call in assay [1] and in assay [2] was “inactive” throughout. The growth inhibition call in assay [3] was “inactive”.
Regarding `CO[C@H]1O[C@H](COC(=O)NCCCCCC(=O)NO)[C@@H](OC(=O)Nc2ccccc2)[C@@H]2OC(=O)[C@H](Cc3cccc(Br)c3)C/C=C/C[C@@H](Cc3cccc(Br)c3)C(=O)O[C@@H]12`, the cytotoxicity call in assay [1] and in assay [2] was “inactive” throughout. Also, the growth inhibition call in assay [3] is “inactive”.
`C[C@H]1CN([C@@H](C)CO)C(=O)c2cc(NC(=O)CCCCCC(=O)Nc3ccccc3N)ccc2O[C@@H]1CN(C)C(=O)Nc1cccc2ccccc12`: the cytotoxicity call in assay [1] and in assay [2] was “inactive” each time. Also, the growth inhibition call in assay [3] was “inactive”.
`COc1ccccc1-c1ccc2n(c1=O)C[C@H]1[C@H](CO)[C@@H](C(=O)NCC3CC3)N(S(C)(=O)=O)[C@@H]21`: the cytotoxicity call in assay [1] and in assay [2] was “inactive” each time. Further, the growth inhibition call in assay [3] was “inactive”.
For the compound `CCCCCCCCC=CCCCCCCCC(=O)[O-].[NH3+]CCO`, the cytotoxicity call in assay [1] and in assay [2] was “inactive” throughout. Moreover, in assay [3], the growth inhibition call was “inactive”.
Take `CN(C)CC(=O)N[C@@H]1CC[C@@H](CC(=O)NCCN2CCCCC2)O[C@@H]1CO`: the cytotoxicity call in assay [1] and in assay [2] was “inactive” in each case. Moreover, in assay [3], the growth inhibition call is “inactive”.
As to `C[C@H](CO)N1C[C@H](C)[C@@H](CN(C)Cc2ccc(Cl)c(Cl)c2)Oc2c(NC(=O)Nc3ccccc3)cccc2C1=O`, the cytotoxicity call in assay [1] is “active”. For the same compound, the cytotoxicity call in assay [2] is “inactive”. Moreover, the growth inhibition call in assay [3] is “inactive”.
As to `CNC[C@H]1Oc2ccc(NC(=O)Cn3cnnn3)cc2C(=O)N([C@H](C)CO)C[C@@H]1C`, the cytotoxicity call in assay [1] and in assay [2] was “inactive” in each case. The growth inhibition call in assay [3] is “inactive”.
As to `CO[C@@H]1CN(C)C(=O)c2cc(NS(=O)(=O)CC(F)(F)F)ccc2OC[C@H](C)N(Cc2nccs2)C[C@@H]1C`, the cytotoxicity call in assay [1] and in assay [2] was “inactive” each time. In addition, in assay [3], the growth inhibition call is “inactive”.
Turning to `CC(C)NC(=O)N(C)C[C@H]1OCCCC[C@H](C)Oc2ccc(NS(=O)(=O)c3cn(C)cn3)cc2C(=O)N([C@@H](C)CO)C[C@H]1C`, the cytotoxicity call in assay [1] and in assay [2] was “inactive” in each case. Besides, in assay [3], the growth inhibition call is “inactive”.
As for `Cc1noc(C)c1S(=O)(=O)Nc1cccc2c1O[C@@H](CN(C)C(=O)NC(C)C)[C@@H](C)CN([C@@H](C)CO)C2=O`, the cytotoxicity call in assay [1] and in assay [2] was “inactive” each time. For the same compound, the growth inhibition call in assay [3] was “inactive”.
`COCC#Cc1ccc([C@@H]2[C@H]3CN(C(=O)CN4CCOCC4)CC(=O)N3[C@H]2CO)cc1`: the cytotoxicity call in assay [1] and in assay [2] was “inactive” each time. Moreover, the growth inhibition call in assay [3] is “inactive”.
For `Cc1noc(C)c1S(=O)(=O)Nc1ccc2c(c1)CC(=O)N([C@H](C)CO)C[C@H](C)[C@@H](CN(C)C(=O)Nc1ccc3c(c1)OCO3)O2`, the cytotoxicity call in assay [1] and in assay [2] was “inactive” throughout. Further, in assay [3], the growth inhibition call is “inactive”.
Consider `C[C@H](CO)N1C[C@H](C)[C@@H](CN(C)C(=O)c2ccccc2)OCCCC[C@H](C)Oc2ccc(NC(=O)Cc3ccccc3)cc2C1=O`, for which the cytotoxicity call in assay [1] and in assay [2] was “inactive” in each case. The growth inhibition call in assay [3] was “inactive”.
With `C[C@@H]1CN([C@H](C)CO)C(=O)c2cc(NC(=O)CCC(F)(F)F)ccc2O[C@@H]1CN(C)C(=O)Nc1ccc(C(F)(F)F)cc1`, the cytotoxicity call in assay [1] and in assay [2] was “inactive” throughout. Further, the growth inhibition call in assay [3] is “inactive”.
On to `C[C@H]1CN([C@@H](C)CO)C(=O)CCCn2cc(nn2)CO[C@@H]1CN(C)S(=O)(=O)c1ccccc1C#N`, for which the cytotoxicity call in assay [1] and in assay [2] was “inactive” in each case. The growth inhibition call in assay [3] is “inactive”.
In the case of `C[C@@H]1CN([C@H](C)CO)C(=O)c2cc(NC(=O)Cc3ccccc3)ccc2O[C@@H](C)CCCCO[C@@H]1CN(C)C(=O)Nc1cccc2ccccc12`, the cytotoxicity call in assay [1] and in assay [2] was “inactive” throughout. The growth inhibition call in assay [3] was “inactive”.
Regarding `C[C@@H]1CN([C@@H](C)CO)C(=O)c2cc(NC(=O)NC3CCCCC3)ccc2O[C@@H]1CN(C)S(C)(=O)=O`, the cytotoxicity call in assay [1] and in assay [2] was “inactive” each time. Further, the growth inhibition call in assay [3] is “inactive”.
Regarding `CCS(=O)(=O)N1C[C@]2(CN(C2)C(=O)c2ccc3c(c2)OCO3)c2c(n(c3cc(ccc23)OC)C)[C@H]1CO`, the cytotoxicity call in assay [1] and in assay [2] was “inactive” in each case. In assay [3], the growth inhibition call was “inactive”.
With `Cc1ccc(S[C@]2(C(=O)NCc3ccccc3)CC(=O)N(C3Cc4ccccc4C3)[C@@H]2c2ccc(CO)cc2I)cc1`, the cytotoxicity call in assay [1] and in assay [2] was “inactive” in each case. For the same compound, the growth inhibition call in assay [3] is “inactive”.
